Here are results for 12 molecules from article PMC8708088.

Sequences of proteins named here, by UniProt entry; tags and fusion partners are left off.
UniProt P04491: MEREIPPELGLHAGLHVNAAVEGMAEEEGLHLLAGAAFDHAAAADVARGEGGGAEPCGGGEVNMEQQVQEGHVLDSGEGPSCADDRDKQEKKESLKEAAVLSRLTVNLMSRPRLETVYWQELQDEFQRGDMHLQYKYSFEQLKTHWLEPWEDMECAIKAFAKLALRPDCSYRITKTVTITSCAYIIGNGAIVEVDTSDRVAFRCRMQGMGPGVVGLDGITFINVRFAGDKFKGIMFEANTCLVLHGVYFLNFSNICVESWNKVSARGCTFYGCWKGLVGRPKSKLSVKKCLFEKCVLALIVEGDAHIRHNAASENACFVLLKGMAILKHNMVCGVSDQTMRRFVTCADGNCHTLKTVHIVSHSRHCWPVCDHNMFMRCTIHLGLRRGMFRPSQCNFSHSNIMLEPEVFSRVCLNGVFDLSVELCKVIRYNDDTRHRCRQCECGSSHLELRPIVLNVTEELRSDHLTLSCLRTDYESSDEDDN
UniProt P54132: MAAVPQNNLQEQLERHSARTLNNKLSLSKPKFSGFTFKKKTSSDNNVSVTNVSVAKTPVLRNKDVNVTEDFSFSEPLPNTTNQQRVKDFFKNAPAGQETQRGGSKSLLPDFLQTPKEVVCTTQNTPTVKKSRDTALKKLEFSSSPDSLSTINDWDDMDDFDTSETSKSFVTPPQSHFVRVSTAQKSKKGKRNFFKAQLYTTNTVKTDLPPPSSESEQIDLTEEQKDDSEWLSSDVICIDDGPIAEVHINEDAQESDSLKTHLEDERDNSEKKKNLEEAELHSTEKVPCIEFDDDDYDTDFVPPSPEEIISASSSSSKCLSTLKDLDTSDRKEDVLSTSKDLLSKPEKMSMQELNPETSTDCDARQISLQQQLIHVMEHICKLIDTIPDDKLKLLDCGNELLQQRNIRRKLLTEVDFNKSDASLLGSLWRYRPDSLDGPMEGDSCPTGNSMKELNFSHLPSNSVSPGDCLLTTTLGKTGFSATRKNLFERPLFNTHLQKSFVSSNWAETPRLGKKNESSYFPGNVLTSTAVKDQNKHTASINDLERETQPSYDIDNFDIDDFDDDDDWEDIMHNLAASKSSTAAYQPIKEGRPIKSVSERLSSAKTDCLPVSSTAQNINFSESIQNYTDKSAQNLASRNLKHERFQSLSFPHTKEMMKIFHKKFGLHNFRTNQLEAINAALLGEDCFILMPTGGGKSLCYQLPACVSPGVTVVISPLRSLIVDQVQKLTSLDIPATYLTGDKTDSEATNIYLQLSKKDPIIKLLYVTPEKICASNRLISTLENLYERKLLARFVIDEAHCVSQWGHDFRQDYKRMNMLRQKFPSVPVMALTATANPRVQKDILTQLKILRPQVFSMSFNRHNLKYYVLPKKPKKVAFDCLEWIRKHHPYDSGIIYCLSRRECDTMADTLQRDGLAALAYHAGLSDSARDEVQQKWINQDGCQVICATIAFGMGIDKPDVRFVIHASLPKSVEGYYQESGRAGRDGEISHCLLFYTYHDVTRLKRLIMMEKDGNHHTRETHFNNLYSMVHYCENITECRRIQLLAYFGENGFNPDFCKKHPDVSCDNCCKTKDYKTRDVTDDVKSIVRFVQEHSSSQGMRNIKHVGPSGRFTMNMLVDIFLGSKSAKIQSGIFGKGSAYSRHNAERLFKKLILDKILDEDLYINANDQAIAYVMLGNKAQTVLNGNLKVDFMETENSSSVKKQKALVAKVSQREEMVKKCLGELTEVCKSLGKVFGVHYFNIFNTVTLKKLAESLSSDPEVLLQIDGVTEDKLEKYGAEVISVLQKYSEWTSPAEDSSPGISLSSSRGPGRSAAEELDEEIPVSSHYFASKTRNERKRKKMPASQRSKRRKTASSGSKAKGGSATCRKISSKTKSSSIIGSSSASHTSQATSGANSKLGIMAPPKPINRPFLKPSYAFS
UniProt P49736: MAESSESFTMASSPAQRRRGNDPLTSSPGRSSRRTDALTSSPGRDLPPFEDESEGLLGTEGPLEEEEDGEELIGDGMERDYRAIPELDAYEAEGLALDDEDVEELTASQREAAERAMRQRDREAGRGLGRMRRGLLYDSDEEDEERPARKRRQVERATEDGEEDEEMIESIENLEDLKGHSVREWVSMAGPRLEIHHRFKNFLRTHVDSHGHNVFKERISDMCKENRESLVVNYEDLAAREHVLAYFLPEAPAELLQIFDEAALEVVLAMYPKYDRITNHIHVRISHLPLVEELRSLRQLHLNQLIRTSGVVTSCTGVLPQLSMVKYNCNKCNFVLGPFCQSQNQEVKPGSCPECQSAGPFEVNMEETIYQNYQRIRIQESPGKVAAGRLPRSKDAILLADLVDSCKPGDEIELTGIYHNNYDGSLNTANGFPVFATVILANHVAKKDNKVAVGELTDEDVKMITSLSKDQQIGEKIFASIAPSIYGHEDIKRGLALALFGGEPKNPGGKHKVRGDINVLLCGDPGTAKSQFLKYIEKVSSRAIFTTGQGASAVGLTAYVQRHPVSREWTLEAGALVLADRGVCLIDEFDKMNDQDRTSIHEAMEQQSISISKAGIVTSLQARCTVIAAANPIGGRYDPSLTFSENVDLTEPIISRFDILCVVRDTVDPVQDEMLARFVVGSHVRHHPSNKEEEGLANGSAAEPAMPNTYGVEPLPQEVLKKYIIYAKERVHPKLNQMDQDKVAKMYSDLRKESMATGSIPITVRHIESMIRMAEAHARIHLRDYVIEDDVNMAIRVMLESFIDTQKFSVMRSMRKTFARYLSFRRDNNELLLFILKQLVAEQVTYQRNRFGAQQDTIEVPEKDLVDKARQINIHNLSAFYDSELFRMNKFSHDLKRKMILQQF
UniProt O60934: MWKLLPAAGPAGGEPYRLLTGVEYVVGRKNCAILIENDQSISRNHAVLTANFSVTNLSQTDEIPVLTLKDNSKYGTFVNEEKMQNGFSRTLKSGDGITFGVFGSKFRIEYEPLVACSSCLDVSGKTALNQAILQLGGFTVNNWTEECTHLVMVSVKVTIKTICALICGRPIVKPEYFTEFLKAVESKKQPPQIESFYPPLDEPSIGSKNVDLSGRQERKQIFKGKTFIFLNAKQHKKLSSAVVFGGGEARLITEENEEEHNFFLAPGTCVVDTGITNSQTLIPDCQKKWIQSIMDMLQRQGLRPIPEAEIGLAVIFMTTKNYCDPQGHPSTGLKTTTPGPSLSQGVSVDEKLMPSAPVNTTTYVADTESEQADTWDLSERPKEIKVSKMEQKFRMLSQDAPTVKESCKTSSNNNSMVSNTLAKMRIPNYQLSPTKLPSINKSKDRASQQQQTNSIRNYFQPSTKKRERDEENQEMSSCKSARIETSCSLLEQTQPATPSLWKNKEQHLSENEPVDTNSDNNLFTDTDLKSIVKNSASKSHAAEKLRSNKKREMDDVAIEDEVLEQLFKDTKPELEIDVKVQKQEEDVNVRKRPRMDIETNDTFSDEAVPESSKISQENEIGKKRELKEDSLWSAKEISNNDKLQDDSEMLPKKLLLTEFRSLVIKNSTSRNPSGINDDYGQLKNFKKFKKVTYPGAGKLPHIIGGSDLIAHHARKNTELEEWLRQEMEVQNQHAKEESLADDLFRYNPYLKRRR
UniProt P12004: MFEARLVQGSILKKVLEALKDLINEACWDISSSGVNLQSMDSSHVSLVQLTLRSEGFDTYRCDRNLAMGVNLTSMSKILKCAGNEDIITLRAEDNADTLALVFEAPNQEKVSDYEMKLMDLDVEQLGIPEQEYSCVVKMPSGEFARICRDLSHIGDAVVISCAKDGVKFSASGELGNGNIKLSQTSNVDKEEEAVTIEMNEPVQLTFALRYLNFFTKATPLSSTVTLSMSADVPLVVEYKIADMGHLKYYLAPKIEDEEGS
UniProt Q7Z2Z1: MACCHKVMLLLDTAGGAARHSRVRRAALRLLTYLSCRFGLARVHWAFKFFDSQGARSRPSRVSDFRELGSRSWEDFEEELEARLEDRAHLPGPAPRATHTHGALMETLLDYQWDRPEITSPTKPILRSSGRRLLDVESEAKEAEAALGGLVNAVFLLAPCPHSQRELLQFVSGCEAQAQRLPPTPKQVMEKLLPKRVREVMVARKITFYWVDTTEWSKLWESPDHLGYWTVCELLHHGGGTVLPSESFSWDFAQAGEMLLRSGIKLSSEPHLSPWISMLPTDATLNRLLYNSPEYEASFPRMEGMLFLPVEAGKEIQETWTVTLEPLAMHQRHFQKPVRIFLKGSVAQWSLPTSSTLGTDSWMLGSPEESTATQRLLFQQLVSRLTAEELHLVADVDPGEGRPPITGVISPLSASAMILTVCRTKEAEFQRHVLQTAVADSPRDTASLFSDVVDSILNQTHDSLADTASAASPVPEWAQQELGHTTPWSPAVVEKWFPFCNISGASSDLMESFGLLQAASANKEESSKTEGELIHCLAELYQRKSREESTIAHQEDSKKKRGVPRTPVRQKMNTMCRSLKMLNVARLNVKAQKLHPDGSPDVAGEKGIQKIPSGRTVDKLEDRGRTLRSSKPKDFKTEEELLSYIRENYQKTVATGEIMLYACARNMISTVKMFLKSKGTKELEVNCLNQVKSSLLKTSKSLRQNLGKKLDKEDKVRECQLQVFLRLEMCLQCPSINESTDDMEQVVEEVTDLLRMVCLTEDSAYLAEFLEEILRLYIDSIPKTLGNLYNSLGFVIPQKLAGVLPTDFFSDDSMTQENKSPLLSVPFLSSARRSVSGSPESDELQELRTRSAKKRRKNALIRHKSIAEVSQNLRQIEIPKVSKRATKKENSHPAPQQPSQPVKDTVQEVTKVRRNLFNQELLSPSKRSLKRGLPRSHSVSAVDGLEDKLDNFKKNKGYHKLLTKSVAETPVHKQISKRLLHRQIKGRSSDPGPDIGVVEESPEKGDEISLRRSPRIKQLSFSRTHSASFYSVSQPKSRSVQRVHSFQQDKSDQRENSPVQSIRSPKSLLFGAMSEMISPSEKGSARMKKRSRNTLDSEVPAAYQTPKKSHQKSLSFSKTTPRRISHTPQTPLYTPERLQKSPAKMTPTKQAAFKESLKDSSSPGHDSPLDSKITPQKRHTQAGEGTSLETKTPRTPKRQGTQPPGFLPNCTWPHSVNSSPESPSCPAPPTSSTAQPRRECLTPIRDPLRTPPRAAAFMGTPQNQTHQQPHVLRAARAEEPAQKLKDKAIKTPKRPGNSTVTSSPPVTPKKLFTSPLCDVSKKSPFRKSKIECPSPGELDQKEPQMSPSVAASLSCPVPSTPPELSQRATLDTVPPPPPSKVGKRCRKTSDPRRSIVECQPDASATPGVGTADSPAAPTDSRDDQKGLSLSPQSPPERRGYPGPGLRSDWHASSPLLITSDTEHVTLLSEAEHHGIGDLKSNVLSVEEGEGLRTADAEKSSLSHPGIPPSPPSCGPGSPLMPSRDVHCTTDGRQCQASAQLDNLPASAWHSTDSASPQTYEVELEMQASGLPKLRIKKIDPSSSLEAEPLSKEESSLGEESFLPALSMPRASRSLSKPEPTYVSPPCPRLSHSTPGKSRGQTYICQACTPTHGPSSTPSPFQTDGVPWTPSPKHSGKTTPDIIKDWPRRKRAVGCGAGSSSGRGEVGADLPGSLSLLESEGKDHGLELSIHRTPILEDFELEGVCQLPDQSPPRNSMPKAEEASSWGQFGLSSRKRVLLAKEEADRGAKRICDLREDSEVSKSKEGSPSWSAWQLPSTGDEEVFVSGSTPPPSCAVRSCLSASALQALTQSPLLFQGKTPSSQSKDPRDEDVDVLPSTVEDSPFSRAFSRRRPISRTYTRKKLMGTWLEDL

The chains are these.
B1: MCM3 (protein, UniProt P25205 1-808)
chain: MAGTVVLDDVELREAQRDYLDFLDDEEDQGIYQSKVRELISDNQYRLIVNVNDLRRKNEKRANRLLNNAFEELVAFQRALKDFVASIDATYAKQYEEFYVGLEGSFGSKHVSPRTLTSCFLSCVVCVEGIVTKCSLVRPKVVRSVHYCPATKKTIERRYSDLTTLVAFPSSSVYPTKDEENNPLETEYGLSVYKDHQTITIQEMPEKAPAGQLPRSVDVILDDDLVDKAKPGDRVQVVGTYRCLPGKKGGYTSGTFRTVLIACNVKQMSKDAQPSFSAEDIAKIKKFSKTRSKDIFDQLAKSLAPSIHGHDYVKKAILCLLLGGVERDLENGSHIRGDINILLIGDPSVAKSQLLRYVLCTAPRAIPTTGRGSSGVGLTAAVTTDQETGERRLEAGAMVLADRGVVCIDEFDKMSDMDRTAIHEVMEQGRVTIAKAGIHARLNARCSVLAAANPVYGRYDQYKTPMENIGLQDSLLSRFDLLFIMLDQMDPEQDREISDHVLRMHRYRAPGEQDGDAMPLGSAVDILATDDPNFSQEDQQDTQIYEKHDNLLHGTKKKKEKMVSAAFMKKYIHVAKIIKPVLTQESATYIAEEYSRLRSQDSMSSDTARTSPVTARTLETLIRLATAHAKARMSKTVDLQDAEEAVELVQYAYFKKVLEKEKKRKKRSEDESETEDEEEKSQEDQEQKRKRRKTRQPDAKDGDSYDPYDFSDTEEEMPQVHTPKTADSQETKESQKVELSESRLKAFKVALLDVFREAHAQSIGMNRLTESINRDSEEPFSSVEIQAALSKMQDDNQVMVSEGIIFLI
B2: ORC6 (protein, UniProt Q9Y5N6 1-252)
chain: MGSELIGRLAPRLGLAEPDMLRKAEEYLRLSRVKCVGLSARTTETSSAVMCLDLAASWMKCPLDRAYLIKLSGLNKETYQSCLKSFECLLGLNSNIGIRDLAVQFSCIEAVNMASKILKSYESSLPQTQQVDLDLSRPLFTSAALLSACKILKLKVDKNKMVATSGVKKAIFDRLCKQLEKIGQQVDREPGDVATPPRKRKKIVVEAPAKEMEKVEEMPHKPQKDEDLTQDYEEWKRKILENAASAQKATAE
B3: cdc45 (protein, UniProt O75419 1-566)
chain: MFVSDFRKEFYEVVQSQRVLLFVASDVDALCACKILQALFQCDHVQYTLVPVSGWQELETAFLEHKEQFHYFILINCGANVDLLDILQPDEDTIFFVCDTHRPVNVVNVYNDTQIKLLIKQDDDLEVPAYEDIFRDEEEDEEHSGNDSDGSEPSEKRTRLEEEIVEQTMRRRQRREWEARRRDILFDYEQYEYHGTSSAMVMFELAWMLSKDLNDMLWWAIVGLTDQWVQDKITQMKYVTDVGVLQRHVSRHNHRNEDEENTLSVDCTRISFEYDLRLVLYQHWSLHDSLCNTSYTAARFKLWSVHGQKRLQEFLADMGLPLKQVKQKFQAMDISLKENLREMIEESANKFGMKDMRVQTFSIHFGFKHKFLASDVVFATMSLMESPEKDGSGTDHFIQALDSLSRSNLDKLYHGLELAKKQLRATQQTIASCLCTNLVISQGPFLYCSLMEGTPDVMLFSRPASLSLLSKHLLKSFVCSTKNRRCKLLPLVMAAPLSMEHGTVTVVGIPPETDSSDRKNFFGRAFEKAAESTSSRMLHNHFDLSVIELKAEDRSKFLDALISLLS
B4: ORC3 (protein, UniProt Q9UBD5 1-711)
chain: MATSSMSKGCFVFKPNSKKRKISLPIEDYFNKGKNEPEDSKLRFETYQLIWQQMKSENERLQEELNKNLFDNLIEFLQKSHSGFQKNSRDLGGQIKLREIPTAALVLGVNVTDHDLTFGSLTEALQNNVTPYVVSLQAKDCPDMKHFLQKLISQLMDCCVDIKSKEEESVHVTQRKTHYSMDSLSSWYMTVTQKTDPKMLSKKRTTSSQWQSPPVVVILKDMESFATKVLQDFIIISSQHLHEFPLILIFGIATSPIIIHRLLPHAVSSLLCIELFQSLSCKEHLTTVLDKLLLTTQFPFKINEKVLQVLTNIFLYHDFSVQNFIKGLQLSLLEHFYSQPLSVLCCNLPEAKRRINFLSNNQCENIRRLPSFRRYVEKQASEKQVALLTNERYLKEETQLLLENLHVYHMNYFLVLRCLHKFTSSLPKYPLGRQIRELYCTCLEKNIWDSEEYASVLQLLRMLAKDELMTILEKCFKVFKSYCENHLGSTAKRIEEFLAQFQSLDETKEEEDASGSQPKGLQKTDLYHLQKSLLEMKELRRSKKQTKFEVLRENVVNFIDCLVREYLLPPETQPLHEVVYFSAAHALREHLNAAPRIALHTALNNPYYYLKNEALKSEEGCIPNIAPDICIAYKLHLECSRLINLVDWSEAFATVVTAAEKMDANSATSEEMNEIIHARFIRAVSELELLGFIKPTKQKTDHVARLTWGGC
B5: ORC2 (protein, UniProt Q13416 1-577)
chain: MSKPELKEDKMLEVHFVGDDDVLNHILDREGGAKLKKERAQLLVNPKKIIKKPEYDLEEDDQEVLKDQNYVEIMGRDVQESLKNGSATGGGNKVYSFQNRKHSEKMAKLASELAKTPQKSVSFSLKNDPEITINVPQSSKGHSASDKVQPKNNDKSEFLSTAPRSLRKRLIVPRSHSDSESEYSASNSEDDEGVAQEHEEDTNAVIFSQKIQAQNRVVSAPVGKETPSKRMKRDKTSDLVEEYFEAHSSSKVLTSDRTLQKLKRAKLDQQTLRNLLSKVSPSFSAELKQLNQQYEKLFHKWMLQLHLGFNIVLYGLGSKRDLLERFRTTMLQDSIHVVINGFFPGISVKSVLNSITEEVLDHMGTFRSILDQLDWIVNKFKEDSSLELFLLIHNLDSQMLRGEKSQQIIGQLSSLHNIYLIASIDHLNAPLMWDHAKQSLFNWLWYETTTYSPYTEETSYENSLLVKQSGSLPLSSLTHVLRSLTPNARGIFRLLIKYQLDNQDNPSYIGLSFQDFYQQCREAFLVNSDLTLRAQLTEFRDHKLIRTKKGTDGVEYLLIPVDNGTLTDFLEKEEEEA

These are yes or no findings as the source states them, for the method shown. In cells and extracts the contact can be indirect. Some binding calls cover weakened binding; strength is not graded here.

The target in the assay is adenovirus 12 early region 1B 55K protein (adenovirus 12) (UniProt P04491). As to the kind of experiment: co-IP.
In the case of BLM (from UniProt P54132 1-1417), the binding entry was “binds”. Then “DNA-PK catalytic subunit (from UniProt P78527 1-4128)”, with “binds”; and MCM2 (from UniProt P49736 1-904), with “no binding”.

Regarding NBS1 (from UniProt O60934 1-754), the binding result is given as “binds”.

Consider PCNA (from UniProt P12004 1-261), for which the binding entry is “no binding”. Regarding TICRR (from UniProt Q7Z2Z1 1-1910), the binding entry was “binds”. In the case of p53 (from UniProt P04637 1-393) it was “binds”.

Turning to B1, the binding result is recorded as “binds”. Then B2, with “no binding”. As for B3, the binding result is listed as “binds”.

In the case of B4, the binding entry is given as “binds”. In the case of B5 it was “no binding”.
